Some of the results follow.

The assay relates to S. aureus RN4220. The experiment in a line: growth inhibition call (relative growth <= 0.2). To be noted: 50 µM.
Consider `CN(C)Cc1cn(CC[C@H]2CC[C@H](N)[C@@H](CO)O2)nn1`, for which the growth inhibition call is “inactive”.
The entry for `COCC#Cc1ccc([C@@H]2[C@@H](CO)N3C(=O)CN(C(=O)C4CCOCC4)C[C@@H]23)cc1` is “inactive”; for `CN1C(=O)c2cc(NC(=O)c3cnccn3)ccc2OC[C@H]2O[C@@H](CC(=O)N[C@H]3CCN(Cc4ccccc4)C3)CC[C@H]21` it is “inactive”.
The entry for `CCS(=O)(=O)N1CCOC[C@]2(CN(c3cnn(C)c3)C(=O)CO2)C1` is “inactive”.
The entry for `C[C@@H]1CCCCO[C@@H](CN(C)S(=O)(=O)c2ccc(Cl)cc2)[C@@H](C)CN([C@@H](C)CO)C(=O)c2cc(NC(=O)Nc3ccccc3)ccc2O1` is “inactive”; for `COc1ccc(CN(C)C[C@@H]2Oc3ccc(NS(C)(=O)=O)cc3CC(=O)N([C@@H](C)CO)C[C@@H]2C)cc1` it is “inactive”.
In the case of `O=C(CN1CCOCC1)NCC[C@H]1CC[C@H](NC(=O)Cc2ccccn2)[C@@H](CO)O1`, the growth inhibition call is “inactive”.
With `CO[C@@H]1CN(C)C(=O)c2ccc(NS(=O)(=O)c3cn(C)cn3)cc2OC[C@@H](C)N(CCC(F)(F)F)C[C@@H]1C`, the growth inhibition call was “inactive”.
For the compound `C[C@@H]1CCCCO[C@H](CN(C)C(=O)C2CCCCC2)[C@@H](C)CN([C@@H](C)CO)C(=O)c2cc(NC(=O)Nc3ccccc3)ccc2O1`, the growth inhibition call is “inactive”.

Values taken from the antibiotic and cytotoxicity screens of Wong et al. (2023).
